Several values for one entry are separate records, joined by “and”; a condition that tells them apart may be missing. Identical values can stand only once. The shares of active, inactive and inconclusive entries below differ from those in the screen. For part of these data: A potency beside an inconclusive call is a rough fit, not a confirmed value. Where a structure was tested more than once in an assay, its records may differ in their call. Activity calls are given as the source filed them. Unless noted, the call rests on the fitted dose curve; in most records, active means well fitted curve in the direction sought with a large enough effect; inconclusive means small, poorly fitted or top-dose-only effect, or another doubt; inactive means no such curve, though single readings can be large; an effect the other way counts as inactive or inconclusive.
Experiments:
[1] = Primary qHTS for inhibitors of nuclear receptor binding SET domain protein 2 (NSD2) in an RCH-ACV wild type WT cells (2C) (AID 1645877); settings: activity change, negative = cell killing: at 44.9 µM (top of the series); further: nearly all actives have a fitted effect of over 70% in size; further: potency means the concentration at half of the fitted maximal effect
[2] = Primary fluorescence-based thiol-reactive (MSTI) qHTS assay for identification of artifact compounds. (AID 1845221); further: potency means the concentration at half of the fitted maximal effect;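 further: thiol-reactive compounds lower the probe fluorescence signal; nearly all actives have a fitted effect of over 65% in size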
Summary of the method: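 In PBS pH 7.4 with 2% DMSO, each compound met 4 uM MSTI for one hour at ambient temperature, shielded from light, before fluorescence detection.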

[3] = NCATS anti-infectives library activity on HEK293 viability as a counter-qHTS vs the C. elegans viability qHTS (AID 1745854);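 further: potency means the concentration at half of the fitted maximal effect; HEK293 cells exposed to compounds for 24 hr before the viability read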
Summary of the method: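 Cytotoxicity in human HEK293 cells is measured by ATP-dependent CellTiter-Glo luminescence following a 24 hr incubation with titrated library compounds at 37C. Top final concentration is 41.7 uM.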

[4] = tested on: Nanoluciferase (engineered Oplophorus gracilirostris luciferase); experiment: Primary Nanoluciferase (NLuc) qHTS assay for identification of artifact compounds. (AID 1845222)
Summary of the method: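 Diluted conditioned medium from NLuc-expressing S16 cells treated with compounds for 15 min at room temperature, then Nano-Glo substrate added; luminescence read after 5 min. Percent inhibition versus no-enzyme and DMSO controls fitted to 4-parameter Hill equation.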

[5] = biological target: Phospholipid hydroperoxide glutathione peroxidase GPX4 (Homo sapiens) (UniProt P36969); experiment: Primary qHTS Assay for Inhibitors of Recombinant Selenoprotein Glutathione Peroxidase 4 (GPX4) (AID 1845192); further: nearly all actives have a fitted effect of over 65% in size; further: potency means the concentration at half of the fitted maximal effect
Summary of the method: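 GR-coupled assay: recombinant GPX4 preincubated 30 min with compound at room temperature; final 200 nM GPX4, 1 mM GSH, 0.5 mM cumene hydroperoxide, 0.5 mM NADPH, 100 nM GR, 0.01% BSA, pH 7.5 Tris. NADPH fluorescence (340/450 nm) read at 0 and 15 min.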

[6] = biological target: Rap guanine nucleotide exchange factor 3 (Homo sapiens) (UniProt O95398); experiment: Confirmatory qHTS for antagonist of cAMP-regulated guanine nucleotide exchange factor 3 (EPAC1) (AID 1645880); further: potency means the concentration at half of the fitted maximal effect; nearly all actives have a fitted effect of over 55% in size
Summary of the method: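 Nucleotide exchange uses 100 nM EPAC1, 250 nM RAP1B-BODIPY-GDP and 50 uM GDP, with compounds in a concentration-titration series. After 5 min at room temperature, fluorescence (480 nm ex/540 nm em) is read every 5 min for 30 min. Data are normalized to control ATA and DMSO.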

[7] = biological target: Glutathione peroxidase 1 (Homo sapiens) (UniProt P07203); experiment: Primary qHTS Assay for Inhibitors of Recombinant Selenoprotein Glutathione Peroxidase 1 (GPX1) (AID 1845191); settings: activity, negative = inhibition: at 48.8 µM (top of the series); further: nearly all actives have a fitted effect of over 65% in size; further: potency means the concentration at half of the fitted maximal effect
Summary of the method: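 GR-coupled assay: compounds preincubated 30 min at room temperature with GPX1, then reaction started with CHP; final 10 nM GPX1, 1 mM GSH, 0.5 mM CHP, 0.5 mM NADPH, 100 nM GR, 0.01% BSA, pH 7.5 Tris buffer. NADPH fluorescence (340/450 nm) read at 0 and 15 min.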

[8] = NCATS anti-infectives library activity on the primary C. elegans qHTS viability assay (AID 1745855; calls by dose curve; further: potency means the concentration at half of the fitted maximal effect)
Summary of the method: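 Viability is taken from GFP fluorescence of PE254-GFP-FLuc C. elegans imaged by laser cytometry over 7 days. Ten L1 worms per well grow at 21 °C on TOP10 E. coli capsules with titrated compound; levamisole marks toxicity.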

[9] = biological target: Nuclear receptor subfamily 1 group I member 3 (Homo sapiens) (UniProt Q14994); experiment: Primary qHTS for antagonist of constitutive androstane receptor (CAR) against the NCATS DSHEA and TCM libraries (AID 1794836); further: potency means the concentration at half of the fitted maximal effect
Summary of the method: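 HepG2-CYP2B6-hCAR cells, attached 5 h, given compounds plus CITCO agonist […], incubated 24 h at 37 C. Luciferase luminescence read, multiplexed with CellTiter-Fluor viability (Ex/Em 405/540 nm).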

[10] = biological target: Nuclear receptor subfamily 1 group I member 3 (Homo sapiens) (UniProt Q14994); experiment: Primary qHTS for agonist of constitutive androstane receptor (CAR) against the NCATS DSHEA and TCM libraries (AID 1794839);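 further: HepG2 cells expressing human CAR with a CYP2B6 reporter plus PK11195 antagonist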
Summary of the method: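 HepG2-CYP2B6-hCAR cells (2,500/well) were attached for 5 h, then treated for 24 h at 37 °C with compounds plus 0.75 µM PK11195. Luciferase luminescence (ONE-Glo) was read, with CellTiter-Fluor viability (Ex/Em 405/540 nm).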
Tags describe the fitted curve by direction and shape.

Chain of UniProt Q14994 (Q14994 whole entry, looked up): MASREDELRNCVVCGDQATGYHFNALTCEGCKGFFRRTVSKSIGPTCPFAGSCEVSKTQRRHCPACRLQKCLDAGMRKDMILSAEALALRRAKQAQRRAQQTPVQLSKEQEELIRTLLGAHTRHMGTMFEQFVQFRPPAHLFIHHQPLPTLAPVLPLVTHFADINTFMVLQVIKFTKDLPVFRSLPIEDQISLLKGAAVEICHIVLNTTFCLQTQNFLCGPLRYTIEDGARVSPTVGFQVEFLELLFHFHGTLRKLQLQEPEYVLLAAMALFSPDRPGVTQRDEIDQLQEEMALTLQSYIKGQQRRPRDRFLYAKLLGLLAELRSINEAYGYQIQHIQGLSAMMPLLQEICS
Chain of UniProt P36969 (P36969 whole entry, looked up): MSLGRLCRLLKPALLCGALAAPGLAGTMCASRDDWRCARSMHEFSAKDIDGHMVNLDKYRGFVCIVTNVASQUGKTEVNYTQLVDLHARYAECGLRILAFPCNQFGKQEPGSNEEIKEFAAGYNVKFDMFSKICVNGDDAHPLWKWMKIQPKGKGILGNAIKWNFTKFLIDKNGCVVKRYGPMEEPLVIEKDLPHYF
Chain of UniProt P07203 (P07203 whole entry, looked up): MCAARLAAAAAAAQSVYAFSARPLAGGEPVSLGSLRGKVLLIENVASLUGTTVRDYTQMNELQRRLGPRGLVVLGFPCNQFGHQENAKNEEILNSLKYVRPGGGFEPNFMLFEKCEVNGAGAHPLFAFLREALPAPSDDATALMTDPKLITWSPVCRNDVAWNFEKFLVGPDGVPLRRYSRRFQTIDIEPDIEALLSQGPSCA
Chain of UniProt O95398 (O95398 whole entry, looked up): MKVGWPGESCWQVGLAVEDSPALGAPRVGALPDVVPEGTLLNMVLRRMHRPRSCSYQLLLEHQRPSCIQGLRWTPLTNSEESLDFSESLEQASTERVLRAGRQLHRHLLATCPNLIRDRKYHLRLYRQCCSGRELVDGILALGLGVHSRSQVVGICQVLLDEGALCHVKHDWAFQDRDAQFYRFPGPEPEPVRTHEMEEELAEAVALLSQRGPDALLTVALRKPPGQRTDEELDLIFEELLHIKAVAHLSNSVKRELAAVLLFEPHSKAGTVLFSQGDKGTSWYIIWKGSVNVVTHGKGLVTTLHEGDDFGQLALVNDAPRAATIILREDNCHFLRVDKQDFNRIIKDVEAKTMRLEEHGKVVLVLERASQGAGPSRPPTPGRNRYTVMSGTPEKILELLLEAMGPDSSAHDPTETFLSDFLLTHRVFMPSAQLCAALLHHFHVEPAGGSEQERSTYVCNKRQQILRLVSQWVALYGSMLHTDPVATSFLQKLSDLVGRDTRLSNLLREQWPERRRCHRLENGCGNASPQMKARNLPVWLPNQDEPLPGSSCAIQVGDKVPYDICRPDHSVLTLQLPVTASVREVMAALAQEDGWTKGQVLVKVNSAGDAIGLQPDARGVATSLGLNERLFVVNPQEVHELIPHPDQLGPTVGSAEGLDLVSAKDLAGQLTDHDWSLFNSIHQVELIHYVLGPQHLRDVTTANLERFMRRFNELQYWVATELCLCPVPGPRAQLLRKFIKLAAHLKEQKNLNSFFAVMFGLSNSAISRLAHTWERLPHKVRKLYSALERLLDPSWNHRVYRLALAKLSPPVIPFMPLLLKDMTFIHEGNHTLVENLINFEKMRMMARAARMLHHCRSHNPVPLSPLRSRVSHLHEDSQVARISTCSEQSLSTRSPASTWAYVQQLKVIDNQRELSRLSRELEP

In the case of C=CCn1c(=O)c2cnc(Nc3ccc(N4CCN(C)CC4)cc3)nc2n1-c1cccc(C(C)(C)O)n1, the Potency [1] was active: 230 nM and active: 468 nM and the Potency [2] was inconclusive: 2.67 µM [inhibitor, full curve].

In the case of CCc1cc(-c2n[nH]c(C)c2-c2ccc3c(c2)OCCO3)c(O)cc1O, the Potency [1] was active: 7.42 µM.

With CCN(CC)Cc1ccc2cc(COC(=O)Nc3ccc(C(=O)NO)cc3)ccc2c1 the Potency [3] was inconclusive: 22.4 µM [cytotoxic, single point] and the Potency [2] was inconclusive: 0.423 µM [inhibitor, partial curve, poor fit].

For Nc1ncnc2c1c(-c1cccc(OCc3ccccc3)c1)cn2C1CC(CN2CCCC2)C1 (configuration not stated), the Potency [1] was active: 10.5 µM, the Potency [2] was “inactive” and the Potency [4] was “inactive”.

For CNC(=O)c1ccc(N2C(=S)N(c3ccc(C#N)c(C(F)(F)F)c3)C(=O)C2(C)C)cc1F, the Potency [1] was “inactive”.

With CS(=O)(=O)Nc1ccc([N+](=O)[O-])cc1Oc1ccccc1 the Potency [1] was “inactive” and the Potency [5] was “inactive”.

In the case of Nc1nccc(-c2ccc3noc(-c4ccc(Cl)cc4)c3c2)n1, the Potency [1] was inconclusive: 8.33 µM [inhibitor, full curve] and the Potency [5] was inconclusive: 20.2 µM [inhibitor, single point].

For O=c1c(O)c(-c2ccc(O)cc2O)oc2cc(O)cc(O)c12, the Potency [6] was inconclusive: 39.5 µM [inhibitor, partial curve].

In the case of COc1ccc2cc1Oc1ccc(cc1)C[C@H]1c3cc(c(OC)cc3CCN1C)Oc1c(OC)c(OC)cc3c1[C@H](C2)N(C)CC3, the Potency [3] was inconclusive: 22.4 µM [cytotoxic, single point].

With Cc1ccc(NC(=O)c2ccc(CN3CCN(C)CC3)cc2)cc1Nc1nc(-c2cccnc2)cs1 the Potency [1] was active: 18.4 µM and active: 14.8 µM, the Potency [7] was inconclusive: 9.04 µM [inhibitor, partial curve, poor fit] and the Potency [5] was inconclusive: 25.1 µM [inhibitor, partial curve].

In the case of COCCCOc1ccnc(CS(=O)c2nc3ccccc3[nH]2)c1C (configuration not stated), the Potency [1] was inconclusive: 37.2 µM [inhibitor, partial curve, poor fit] and inconclusive: 23.7 µM [inhibitor, single point], the Potency [7] was inconclusive: 32.1 µM [inhibitor, single point] and active: 14.3 µM and the Potency [5] was inconclusive: 28.6 µM [inhibitor, single point] and inconclusive: 32.1 µM [inhibitor, single point] and inconclusive: 6.4 µM [inhibitor, full curve]. The Potency [2] was “inactive”.

For Oc1ccc([C@@H]2Oc3ccc(O)cc3[C@@H]3CCC[C@@H]32)cc1, the Potency [1] was active: 5.9 µM.

For CC(=O)Nc1cccc(-n2c(=O)n(C3CC3)c(=O)c3c(Nc4ccc(I)cc4F)n(C)c(=O)c(C)c32)c1, the Potency [3] was inconclusive: 0.0891 µM [cytotoxic, full curve, poor fit], the Potency [8] was active: 2.3 µM and the Potency [7] was “inactive”.

With Nc1nc(N)nc(-c2cc(Cl)ccc2Cl)n1 the Potency [1] was “inactive”.

With CC(C)(CO)[C@@H](O)C(=O)NCCC(=O)O the Potency [1] was inconclusive: 33.2 µM [inhibitor, single point] and the Potency [7] was “inactive”.

For O=C(O)c1cccnc1, the Potency [1] was inconclusive: 17.1 µM [inhibitor, single point], the Potency [9] was inconclusive: 3.16 µM [inhibitor, full curve] and the Potency [10] was “inactive”.

For Cn1cnc(-c2cc3nccc(Oc4ccc(NC(=S)NC(=O)Cc5ccccc5)cc4F)c3s2)c1, the Potency [1] was active: 5.78 µM and active: 3.32 µM, the Potency [7] was inconclusive: 12.8 µM [inhibitor, partial curve] and the Potency [5] was active: 7.18 µM.

In the case of Cc1cc(Nc2nc(N[C@@H](C)c3ccc(F)cc3)c(C#N)cc2F)n[nH]1, the Potency [3] was inconclusive: 10 µM [cytotoxic, partial curve, poor fit], the Potency [8] was “inactive” and the Potency [7] was inconclusive: 25.5 µM [inhibitor, partial curve, poor fit].

With O=C(NC1CCNCC1)c1[nH]ncc1NC(=O)c1c(Cl)cccc1Cl the Potency [1] was active: 0.59 µM.

For Cc1cccc(Nc2nc(N[C@@H]3CCCC[C@H]3N)ncc2C(N)=O)c1, the Potency [1] was active: 1.48 µM.

For Cn1c(=O)c2c(ncn2C)n(C)c1=O, the Potency [9] was “inactive”.

In the case of Cc1cc2c(F)c(Oc3ncnn4cc(OC[C@@H](C)O)c(C)c34)ccc2[nH]1, the Potency [1] was inconclusive: 3.32 µM [inhibitor, full curve, poor fit].

— PubChem BioAssay (NCATS)
